Data from PubChem BioAssay (NCATS).
The inconclusive results got no clear call from the source; some entries with a clear call stand among them for comparison. A potency beside an inconclusive call is a rough fit, not a confirmed value. The source made the active and inactive calls. Unless noted, calls come from the whole dose curve; as a rule, active = well fitted activation curve with a large enough effect in the main read-out, with a control signal flat (not every such curve was filed as active); inconclusive = small, poorly fitted or top-dose-only effect, or effect the other way, or a change in a side signal; inactive = flat fitted curve, though single readings scatter.

Molecular target: 3',5'-cyclic-AMP phosphodiesterase 4B (Homo sapiens) (UniProt Q07343)
Assay: qHTS Assay for Inhibitors of PDE-IV (AID 607); for activation (PDE inhibition): % of control where 0% means no effect
Conditions: HEK293 ACTOne CNG channel cells, membrane potential fluorescence; activation (PDE inhibition): at 22.9 µM (top of the series)
Summary of the method: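 ACTOne HEK293 cells carry a modified cAMP-gated CNG channel and express endogenous PDE4; plated 1000 cells/well, compounds up to 22.9 uM final. Membrane-potential dye fluorescence (ex 535/em 590) was read; parental cells received 10 uM forskolin + 100 uM RO 20-1724.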
Potency is the fitted concentration of half-maximal effect; tags give direction and shape of the fitted curve or compound fluorescence and quenching.

Chain of UniProt Q07343 (Q07343 whole entry, looked up): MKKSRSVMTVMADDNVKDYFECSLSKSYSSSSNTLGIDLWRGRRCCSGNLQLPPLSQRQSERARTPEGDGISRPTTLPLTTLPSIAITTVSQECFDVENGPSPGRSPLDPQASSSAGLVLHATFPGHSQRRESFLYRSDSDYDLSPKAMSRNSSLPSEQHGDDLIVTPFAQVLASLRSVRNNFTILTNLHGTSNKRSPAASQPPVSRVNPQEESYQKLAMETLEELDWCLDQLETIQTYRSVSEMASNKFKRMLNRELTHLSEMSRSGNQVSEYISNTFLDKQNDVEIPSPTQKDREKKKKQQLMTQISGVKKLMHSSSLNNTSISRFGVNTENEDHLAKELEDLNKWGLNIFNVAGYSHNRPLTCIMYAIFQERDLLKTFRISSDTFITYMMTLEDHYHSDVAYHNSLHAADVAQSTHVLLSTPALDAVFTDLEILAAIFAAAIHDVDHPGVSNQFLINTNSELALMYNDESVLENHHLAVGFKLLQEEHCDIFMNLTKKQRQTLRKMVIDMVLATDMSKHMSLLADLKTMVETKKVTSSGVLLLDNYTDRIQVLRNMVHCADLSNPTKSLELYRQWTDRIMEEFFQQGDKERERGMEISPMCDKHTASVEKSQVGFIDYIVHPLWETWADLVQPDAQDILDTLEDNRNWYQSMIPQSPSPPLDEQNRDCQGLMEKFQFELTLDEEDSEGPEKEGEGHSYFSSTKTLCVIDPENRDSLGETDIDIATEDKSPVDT

| SMILES | Potency |
| --- | --- |
| CCNc1ncc2nc(-c3cn(C)c4ccccc34)c(=O)n(C[C@H]3CCCO3)c2n1 | inconclusive: 1.26 µM [activator, full curve, poor fit] |
| CCCCCCCCCC[Si](C)(C)CCC(=O)N[C@@H](Cc1ccc(C)cc1)c1ccccc1 | inactive |
| O=C(O)C/C(=C\c1ccccc1)C(=O)O | inactive |
| O=C1CC[C@H](NC(=O)c2ccccc2)C(=O)N1 | inactive |
| O=c1c(-c2cccc(Cl)c2)nc2cncnc2n1-c1ccccc1 | inconclusive: 10 µM [activator, partial curve] |
| Nc1ccn([C@@H]2O[C@@H](CO)[C@@H](O)[C@H]2O)c(=O)n1 | inactive |
| COc1cccc(Cn2c(=O)c(C)nc3cnc(N4CCOCC4)nc32)c1 | inconclusive: 5.01 µM [activator, partial curve] |
| CN(C)Cc1ccccc1-c1nc(N2CCOCC2)c2ccccc2n1 | inconclusive: 10 µM [rising, partial curve] |
| Cc1cnc(CNc2nc(-c3c(C)noc3C)nc3ccccc23)cn1 | inconclusive: 7.94 µM [activator, partial curve] |
| N=C(N)SCc1cc(Cl)cc(Cl)c1O | inactive |
| Cn1cc(-c2nc3cnc(Oc4ccccc4)nc3n(C)c2=O)c2ccccc21 | inconclusive: 1.26 µM [activator, single point] |
| CN(C)c1ncc2nc(-c3cccs3)c(=O)n(-c3ccccc3)c2n1 | inconclusive: 7.94 µM [activator, single point] |
| Cn1cccc1C(=O)N1CCC[C@@]2(CCN(Cc3cc(C(F)(F)F)cc(C(F)(F)F)c3)C2)C1 | inactive |
| COc1cccc(Cn2c(=O)c(-c3ccc(F)cc3)nc3cnc(N(C)C)nc32)c1 | inactive |
| C[C@@H]1[C@H](C)CC[C@@]2(C(=O)O)CC[C@]3(C)C(=CC[C@H]4[C@@]5(C)CC[C@@H](O)C(C)(C)[C@@H]5CC[C@@]43C)[C@@H]12 | inactive |

Test system: not listed separately
Assay: qHTS Assay for Identification of Small Molecule Agonists for Hypoxia Response Element Signaling Pathway (AID 914; active = well fitted activation curve with a large enough effect in the signal ratio, with a control signal flat, not every such curve was filed as active; inconclusive = small, poorly fitted or top-dose-only effect, or effect the other way, or a change in a side signal; the % refers to the signal ratio; for activation: top concentration of the series differs between compounds; % of control where 0% means no effect)
Conditions: ME-180 (cervical carcinoma) HRE-bla reporter, beta-lactamase ratio, CoCl2, 17 h; activation: hits give high values
Summary of the method: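 qHTS titration; ME-180 HRE-bla cells; EC50 CoCl2 co-treatment, 17 h at 37 degrees Celsius; CCF4 dye, ex 405nm, em 460nm and 530nm; %Activity from ratio; AC50.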

| SMILES | Potency | activation |
| --- | --- | --- |
| CCNc1ncc2nc(-c3cn(C)c4ccccc34)c(=O)n(C[C@H]3CCCO3)c2n1 | inconclusive: 5.01 µM [activator, single point] |  |
| CCCCCCCCCC[Si](C)(C)CCC(=O)N[C@@H](Cc1ccc(C)cc1)c1ccccc1 |  | inconclusive: 40% |
| O=C(O)C/C(=C\c1ccccc1)C(=O)O |  | inconclusive: -13.2% |
| O=C1CC[C@H](NC(=O)c2ccccc2)C(=O)N1 |  | inconclusive: 2.5% |
| O=c1c(-c2cccc(Cl)c2)nc2cncnc2n1-c1ccccc1 | inconclusive: 3.98 µM [activator, single point] |  |
| Nc1ccn([C@@H]2O[C@@H](CO)[C@@H](O)[C@H]2O)c(=O)n1 | inconclusive: 6.31 µM [inhibitor, partial curve] |  |
| COc1cccc(Cn2c(=O)c(C)nc3cnc(N4CCOCC4)nc32)c1 | inconclusive: 1.58 µM [activator, partial curve] |  |
| CN(C)Cc1ccccc1-c1nc(N2CCOCC2)c2ccccc2n1 |  | inconclusive: -0.506% |
| Cc1cnc(CNc2nc(-c3c(C)noc3C)nc3ccccc23)cn1 |  | inconclusive: 33.3% |
| N=C(N)SCc1cc(Cl)cc(Cl)c1O |  | inactive: -24.5% |
| Cn1cc(-c2nc3cnc(Oc4ccccc4)nc3n(C)c2=O)c2ccccc21 | inconclusive: 0.02 µM [activator, full curve, poor fit] |  |
| CN(C)c1ncc2nc(-c3cccs3)c(=O)n(-c3ccccc3)c2n1 | inconclusive: 2.51 µM [activator, partial curve] |  |
| Cn1cccc1C(=O)N1CCC[C@@]2(CCN(Cc3cc(C(F)(F)F)cc(C(F)(F)F)c3)C2)C1 | inconclusive: 3.16 µM [inhibitor, single point] |  |
| COc1cccc(Cn2c(=O)c(-c3ccc(F)cc3)nc3cnc(N(C)C)nc32)c1 |  | inconclusive: -2.14% |
| C[C@@H]1[C@H](C)CC[C@@]2(C(=O)O)CC[C@]3(C)C(=CC[C@H]4[C@@]5(C)CC[C@@H](O)C(C)(C)[C@@H]5CC[C@@]43C)[C@@H]12 |  | inconclusive: 10.8% |

Molecular target: Luciferin 4-monooxygenase (Photinus pyralis) (UniProt P08659)
Assay: Biochemical firefly luciferase enzyme assay for NPC (AID 624030; active = well fitted inhibition curve with a large enough effect; inconclusive = small, poorly fitted or top-dose-only effect; note: nearly all actives have a fitted effect of over 70% in size)
Conditions: purified P. pyralis luciferase, luminescence, 5 min; series mostly up to 58.6 µM
Summary of the method: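 Purified P. pyralis luciferase at 10 nM in 50 mM Tris Acetate (final), luminescence read within 5 minutes of enzyme addition to compounds. Activity normalised to PTC124 versus DMSO; concentration-response curves classed by r2, magnitude and activity.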

Chain of UniProt P08659 (P08659 whole entry, looked up): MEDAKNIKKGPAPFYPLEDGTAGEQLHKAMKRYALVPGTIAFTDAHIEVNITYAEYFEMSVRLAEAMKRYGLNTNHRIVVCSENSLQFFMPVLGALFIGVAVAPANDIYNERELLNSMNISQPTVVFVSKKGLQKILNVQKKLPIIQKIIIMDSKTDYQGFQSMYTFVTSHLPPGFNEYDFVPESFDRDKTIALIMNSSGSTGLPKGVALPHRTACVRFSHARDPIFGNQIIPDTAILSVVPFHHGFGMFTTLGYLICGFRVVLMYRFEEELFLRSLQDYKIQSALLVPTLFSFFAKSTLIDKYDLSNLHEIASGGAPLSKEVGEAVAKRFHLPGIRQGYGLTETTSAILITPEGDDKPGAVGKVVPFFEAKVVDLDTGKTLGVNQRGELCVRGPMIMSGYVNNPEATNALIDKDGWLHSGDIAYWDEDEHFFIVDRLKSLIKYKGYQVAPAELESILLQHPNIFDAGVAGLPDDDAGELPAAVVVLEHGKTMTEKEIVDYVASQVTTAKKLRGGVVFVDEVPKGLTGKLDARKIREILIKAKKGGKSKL

| SMILES | Potency |
| --- | --- |
| CC1(C(=O)O)CCC2(C)CCC3(C)C(=CC(=O)[C@@H]4C5(C)CC[C@H](O[C@H]6O[C@H](C(=O)O)C(O)C(O)[C@H]6O[C@@H]6O[C@H](C(=O)O)C(O)C(O)C6O)C(C)(C)[C@@H]5CCC43C)[C@@H]2C1 (some centres not stated) | inconclusive: 18.1 µM [inhibitor, partial curve] |
| C/C1=C2N=C(/C=C3N=C(/C(C)=C4\[N-][C@@H]([C@H](CC(N)=O)[C@]4(C)CCC(=O)NC[C@@H](C)OP(=O)([O-])O[C@@H]4[C@@H](O)[C@H](n5cnc6cc(C)c(C)cc65)O[C@@H]4CO)[C@@]4(C)N=C1[C@H](CCC(N)=O)[C@@]4(C)CC(N)=O)[C@H](CCC(N)=O)C\3(C)C)[C@@H](CCC(N)=O)[C@@]/2(C)CC(N)=O.[CH3-].[Co+3] | inconclusive: 25.6 µM [inhibitor, partial curve] |
| COc1cc(C[C@H]2NCCc3cc(O)c(O)cc32)cc(OC)c1OC | inconclusive: 40.5 µM [inhibitor, single point] |
| NCCCCC(NC(=O)C1CCCN1C(=O)C1CSSCC(N)C(=O)NC(Cc2ccc(O)cc2)C(=O)NC(Cc2ccccc2)C(=O)NC(CCC(N)=O)C(=O)NC(CC(N)=O)C(=O)N1)C(=O)NCC(N)=O (configuration not stated) | inactive |
| C[C@@H](C(=O)O)c1ccc(C2CCCCC2)c2ccccc12 | inconclusive: 32.2 µM [inhibitor, partial curve] |
| [NH-]CCC([O-])=NC(Cc1cnc[nH]1)C(=O)[O-].[Zn+2] (configuration not stated) | inconclusive: 40.5 µM [inhibitor, single point] |
| CCCC[C@@H](CC)COC(=O)C[C@H](C(=O)OC[C@H](CC)CCCC)S(=O)(=O)O | inconclusive: 28.7 µM [inhibitor, partial curve] |
